Data taken from the supplement of paper PMC4967469.
IC50 is the fitted dose that halves viability relative to control wells, and lower means more sensitive; a fit beyond the top or the lowest dose is shown as a bound at that dose. AUC is the area under the same curve over the 256-fold range up to the top dose, as a fraction: 1 means no effect, lower means more sensitive. For some assays here: Where the top dose is marked as inferred, it was derived from the fitted curves, not read from the paper. For some assays here: An entry number marks a drug with two screens in the source, which often give different values.

Key:
Test in all cases: Viability of human cancer cell lines after 72 h of drug (GDSC screen)
[1] = compound: Nc1ccc(C(=O)Nc2cccc(-c3nc(N4CCOCC4)c4oc5ncccc5c4n3)c2)cn1 [YM201636]; conditions: top dose 5.12 µM; top dose inferred
Experimental: (§1)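 Human cancer cell lines in 384-well plates, medium with 10% serum, drug for 72 h over a 256-fold dose range (nine 2-fold or five 4-fold steps up to the top dose). Adherent lines were fixed and stained with the nucleic acid dye Syto60, suspension lines read with resazurin; signal relative to control wells, capped at 0 and 100%. One two-parameter sigmoid per drug and line, fitted in a mixed model over all curves with the slope shared within a line.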

[2] = compound: NC(=O)C1CCCc2c1[nH]c1ccc(Cl)cc21 [EX-527]; conditions: top dose 20 µM
Experimental: as §1

[3] = compound: N#CC(c1ccnc(NCCc2cccnc2)n1)c1nc2ccccc2s1 [AS601245]; conditions: top dose 8 µM; top dose inferred
Experimental: as §1

[4] = compound: Cn1cnc2c(F)c(Nc3ccc(Br)cc3Cl)c(C(=O)NOCCO)cc21 [AZD6244]; conditions: top dose 4 µM; screen: GDSC drug entry 1498; top dose inferred
Experimental: as §1

Row | Cell Line | AUC [1] | IC50 [1] | AUC [2] | IC50 [2] | AUC [3] | IC50 [3] | AUC [4] | IC50 [4]
1 | 201T (lung adenocarcinoma, adherent) | 0.816 | 3.82 µM | 0.982 | > 20 µM | 0.676 | 1.77 µM |  | 
2 | A375 (melanoma, adherent) |  |  | 0.983 | > 20 µM | 0.819 | 3.55 µM |  | 
3 | A704 (kidney, adherent) | 0.917 | > 5.12 µM |  |  | 0.873 | 7.28 µM | 0.952 | > 4 µM
4 | A2058 (melanoma, adherent) | 0.98 | > 5.12 µM | 0.985 | > 20 µM | 0.814 | 3.79 µM |  | 
5 | AGS (stomach, adherent) | 0.917 | > 5.12 µM | 0.988 | > 20 µM | 0.895 | 7.97 µM |  | 
6 | AU565 (breast, adherent) | 0.814 | 3.19 µM | 0.984 | > 20 µM | 0.715 | 2.19 µM |  | 
7 | BICR31 (head and neck, adherent) | 0.979 | > 5.12 µM | 0.98 | > 20 µM | 0.921 | > 8 µM |  | 
8 | CAL-78 (chondrosarcoma, adherent) | 0.954 | > 5.12 µM | 0.986 | > 20 µM | 0.914 | > 8 µM |  | 
9 | CAPAN-1 (pancreas, adherent) |  |  | 0.986 | > 20 µM | 0.862 | > 8 µM |  | 
10 | CHP-212 (neuroblastoma, adherent) | 0.985 | > 5.12 µM | 0.985 | > 20 µM | 0.844 | 5.1 µM |  | 
11 | Calu-3 (lung adenocarcinoma, adherent) |  |  | 0.982 | > 20 µM | 0.933 | > 8 µM | 0.955 | > 4 µM
12 | Caov-3 (ovary, adherent) | 0.945 | > 5.12 µM | 0.98 | > 20 µM | 0.956 | > 8 µM |  | 
13 | Caov-4 (ovary, adherent) | 0.904 | > 5.12 µM |  |  | 0.888 | > 8 µM | 0.876 | > 4 µM
14 | FADU (head and neck, adherent) | 0.975 | > 5.12 µM | 0.984 | > 20 µM | 0.956 | > 8 µM |  | 
15 | H290 (mesothelioma, adherent) |  |  |  |  | 0.865 | 6.09 µM | 0.838 | 2.37 µM
16 | H2804 (mesothelioma, adherent) | 0.922 | > 5.12 µM | 0.986 | > 20 µM | 0.793 | 4.06 µM |  | 
17 | HCT-116 (large intestine, adherent) |  |  | 0.983 | > 20 µM | 0.901 | > 8 µM | 0.705 | 0.913 µM
18 | HSC-4 (head and neck, adherent) | 0.979 | > 5.12 µM | 0.975 | > 20 µM | 0.897 | > 8 µM |  | 
19 | HuP-T4 (pancreas, adherent) | 0.915 | > 5.12 µM | 0.984 | > 20 µM | 0.787 | 3.72 µM |  | 
20 | IGR-1 (melanoma, adherent) | 0.861 | 3.51 µM | 0.966 | > 20 µM | 0.814 | 3.69 µM |  | 
21 | JHU-029 (head and neck, adherent) |  |  |  |  | 0.826 | 6.4 µM | 0.669 | 0.829 µM

Row | Cell Line | AUC [1] | IC50 [1] | AUC [2] | IC50 [2] | AUC [3] | IC50 [3] | AUC [4] | IC50 [4]
22 | KMS-12-BM (myeloma, suspension) | 0.913 | > 5.12 µM | 0.981 | > 20 µM | 0.932 | > 8 µM |  | 
23 | KP-1N (pancreas, adherent) |  |  |  |  | 0.763 | 3.02 µM | 0.851 | 3.29 µM
24 | KYSE-140 (oesophagus, adherent) | 0.869 | > 5.12 µM | 0.984 | > 20 µM | 0.592 | 0.926 µM |  | 
25 | KYSE-410 (oesophagus, adherent) | 0.954 | > 5.12 µM | 0.985 | > 20 µM | 0.879 | > 8 µM |  | 
26 | KYSE-450 (oesophagus, adherent) | 0.894 | > 5.12 µM | 0.988 | > 20 µM | 0.62 | 1.05 µM |  | 
27 | LN-229 (glioma, adherent) |  |  | 0.983 | > 20 µM | 0.904 | > 8 µM | 0.862 | 3.4 µM
28 | MKN28 (stomach, adherent) | 0.942 | > 5.12 µM | 0.985 | > 20 µM | 0.778 | 3.32 µM |  | 
29 | NCI-H460 (large cell lung carcinoma, adherent) |  |  |  |  | 0.841 | 4.81 µM | 0.897 | > 4 µM
30 | OC-314 (ovary, adherent) | 0.946 | > 5.12 µM | 0.991 | > 20 µM |  |  | 0.919 | > 4 µM
31 | OV-7 (ovary, adherent) | 0.834 | > 5.12 µM | 0.976 | > 20 µM |  |  | 0.847 | > 4 µM
32 | OV-17R (ovary, adherent) | 0.857 | > 5.12 µM | 0.972 | > 20 µM |  |  | 0.898 | > 4 µM
33 | OV-56 (ovary, adherent) | 0.906 | > 5.12 µM | 0.989 | > 20 µM |  |  | 0.889 | > 4 µM
34 | OV-90 (ovary, adherent) | 0.885 | > 5.12 µM | 0.97 | > 20 µM |  |  | 0.493 | 0.237 µM
35 | OVCA420 (ovary, adherent) | 0.883 | > 5.12 µM | 0.981 | > 20 µM |  |  | 0.599 | 0.513 µM
36 | OVCA433 (ovary, adherent) | 0.929 | > 5.12 µM | 0.98 | > 20 µM |  |  | 0.727 | 1.2 µM
37 | OVK-18 (ovary, adherent) | 0.903 | > 5.12 µM | 0.978 | > 20 µM |  |  | 0.875 | > 4 µM
38 | P12-ICHIKAWA (T-cell lymphoblastic leukaemia, suspension) |  |  | 0.973 | > 20 µM | 0.949 | > 8 µM | 0.994 | > 4 µM
39 | PEO1 (ovary, adherent) | 0.979 | > 5.12 µM | 0.984 | > 20 µM |  |  | 0.911 | > 4 µM
40 | QGP-1 (pancreas, adherent) | 0.9 | > 5.12 µM | 0.973 | > 20 µM |  |  | 0.792 | 3.29 µM
41 | RCC-AB (kidney, adherent) | 0.82 | 4.17 µM | 0.975 | > 20 µM |  |  | 0.853 | > 4 µM
42 | RCC-ER (kidney, adherent) | 0.986 | > 5.12 µM | 0.986 | > 20 µM |  |  | 0.943 | > 4 µM

Row | Cell Line | AUC [1] | IC50 [1] | AUC [2] | IC50 [2] | AUC [3] | IC50 [3] | AUC [4] | IC50 [4]
43 | RCC-FG2 (kidney, adherent) | 0.844 | > 5.12 µM | 0.979 | > 20 µM |  |  | 0.926 | > 4 µM
44 | RCC-JF (kidney, adherent) | 0.911 | > 5.12 µM | 0.98 | > 20 µM |  |  | 0.689 | 0.908 µM
45 | RCC-JW (kidney, adherent) | 0.977 | > 5.12 µM | 0.986 | > 20 µM |  |  | 0.9 | > 4 µM
46 | RCC-MF (kidney, adherent) | 0.74 | 1.95 µM | 0.98 | > 20 µM |  |  | 0.885 | > 4 µM
47 | SCC90 (head and neck, adherent) |  |  |  |  | 0.935 | > 8 µM | 0.589 | 0.486 µM
48 | SK-GT-4 (oesophagus, adherent) | 0.924 | > 5.12 µM | 0.982 | > 20 µM |  |  | 0.551 | 0.356 µM
49 | SK-MEL-5 (melanoma, adherent) | 0.983 | > 5.12 µM | 0.982 | > 20 µM |  |  | 0.593 | 0.478 µM
50 | SK-MG-1 (glioma, adherent) | 0.924 | > 5.12 µM | 0.987 | > 20 µM |  |  | 0.954 | > 4 µM
51 | SNU-61 (large intestine, adherent) | 0.916 | > 5.12 µM | 0.985 | > 20 µM |  |  | 0.885 | > 4 µM
52 | SNU-81 (large intestine, adherent) | 0.955 | > 5.12 µM | 0.981 | > 20 µM |  |  | 0.768 | 2.01 µM
53 | SNU-407 (large intestine, adherent) | 0.773 | 2.34 µM | 0.976 | > 20 µM |  |  | 0.767 | 1.73 µM
54 | SNU-1040 (large intestine, adherent) | 0.835 | > 5.12 µM | 0.976 | > 20 µM |  |  | 0.96 | > 4 µM
55 | SNU-C5 (large intestine, adherent) | 0.948 | > 5.12 µM | 0.986 | > 20 µM |  |  | 0.804 | 2.26 µM
56 | STS-0421 (soft tissue, adherent) |  |  |  |  | 0.828 | 6.07 µM | 0.909 | > 4 µM
57 | SU-DHL-10 (B-cell lymphoma, suspension) | 0.78 | 1.52 µM | 0.998 | > 20 µM |  |  | 0.996 | > 4 µM
58 | SW1116 (large intestine, adherent) | 0.985 | > 5.12 µM | 0.98 | > 20 µM |  |  | 0.742 | 1.61 µM
59 | TE-4 (oesophagus, adherent) | 0.983 | > 5.12 µM | 0.985 | > 20 µM |  |  | 0.938 | > 4 µM
60 | U-2-OS (osteosarcoma, adherent) |  |  | 0.985 | > 20 µM | 0.973 | > 8 µM | 0.842 | 3.19 µM
61 | UWB1.289 (ovary, adherent) | 0.838 | > 5.12 µM | 0.98 | > 20 µM |  |  | 0.834 | > 4 µM
62 | YH-13 (glioma, adherent) | 0.798 | 2.59 µM | 0.986 | > 20 µM |  |  | 0.949 | > 4 µM
